Measurements: PubChem BioAssay AID1508623 (National Center for Advancing Translational Sciences (NCATS), 2021)
The campaign covered roughly 48,000 compounds. About 450 (0.94%) were called active. The shares of active, inactive and inconclusive entries below differ from those in the screen. The call rests on the fitted dose curve; in most records, active means well fitted inhibition curve with a large enough effect; inconclusive means small, poorly fitted or top-dose-only effect; inactive means no such curve, though single readings can be large or run the other way. Where the call is inconclusive, the potency comes from a doubtful curve fit.

Assay: Primary qHTS for Identification of Small Molecule Inhibitors of Huntingtin Promoter Activity; further: nearly all actives have a fitted effect of over 50% in size
Settings: HEK293 HTT promoter firefly luciferase reporter (activity 0% = vehicle and -100% = no light), 24 h; series mostly up to 57.5 µM
Summary of the method: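 HEK293 Fluc reporter, 2,500 cells/well, 24 h pre-culture; cpds up to 57.5 uM final, 24 h 37 degrees C; Dual-Glo, 10 min RT; normalized vehicle = 0%, zero RLU = -100%.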
Potency means the concentration at half of the fitted maximal effect; tags describe the fitted curve by direction and shape.

| SMILES | Potency |
| --- | --- |
| CCc1ccc2oc(C(=O)NCC(c3ccc(Cl)cc3)N3CCOCC3)c(C)c2c1 (configuration not stated) | inconclusive: 25.1 µM [inhibitor, single point] |
| Cc1ccc(-n2ncc3c(N4CCCCC4)ncnc32)cc1Cl | inactive |
| CCc1cccc(C)c1NC(=O)c1cc(S(=O)(=O)N(C)Cc2ccccc2)ccc1F | inconclusive: 22.4 µM [inhibitor, single point] |
| CCc1ccc(C2=CC(c3cccc(C)c3)n3c(nc4ccccc43)N2)cc1 (configuration not stated) | inactive |
| O=C(Nc1ccc(OCc2cc(=O)n3ccsc3n2)cc1)c1ccc(F)cc1 | inactive |
| COc1ccc(CNC(=O)CSCc2nc(-c3ccccc3F)oc2C)cc1 | inconclusive: 39.8 µM [inhibitor, single point] |
| C=CC(=O)Nc1cc(NC(=O)c2ccc(C)c(NC(=O)c3ccno3)c2)cc(C(F)(F)F)c1 | inconclusive: 27.3 µM [inhibitor, partial curve] |
| COCCn1c(-c2ccccc2)c(C)n2c3c(=O)n(C)c(=O)n(C)c3nc12 | inactive |
| COc1ccc(C)cc1Nc1c2c(nc3ccccc13)CCC2 | inconclusive: 14.1 µM [inhibitor, partial curve, poor fit] |
| COc1ccc(C2CC(=O)Nc3cc4c(cc32)OCO4)c(OC)c1 (configuration not stated) | inconclusive: 20 µM [inhibitor, partial curve, poor fit] |
| Cc1ccccc1OCC(=O)Nc1ccc2[nH]c(=O)sc2c1 | inactive |
| COc1ccc(CCNC(=O)c2nc(SCc3ccc(F)cc3)ncc2Cl)cc1OC | inconclusive: 35.5 µM [inhibitor, single point] |
| CCOC(=O)N1CCC(NC(=O)c2ccc3c(c2)N(Cc2ccc(F)cc2)C(=O)c2ccccc2S3=O)CC1 (configuration not stated) | inconclusive: 31.6 µM [inhibitor, partial curve, poor fit] |
| Cc1ccc(CCNC(=O)C(C)n2nc(C)c3c(C)n(-c4ccc(C)cc4)nc3c2=O)cc1 (configuration not stated) | inconclusive: 14.1 µM [inhibitor, partial curve, poor fit] |
| COc1ccc(CNC(=O)C2CCCN(C(=O)c3cnn(-c4ccc(F)cc4)c3-n3cccc3)C2)cc1 (configuration not stated) | inconclusive: 35.5 µM [inhibitor, partial curve, poor fit] |
| O=C(NCCS(=O)(=O)N1CCN(c2ccc(F)cc2)CC1)c1ccccc1Br | inconclusive: 35.5 µM [inhibitor, single point] |
| CCOc1ccc(CC(=O)NCCc2sc(-c3cccc(F)c3)nc2C)cc1 | inconclusive: 28.2 µM [inhibitor, single point] |
| CCOc1cccc2sc(NC(=O)c3ccc(S(=O)(=O)N4CCCCC4)cc3)nc12 | inconclusive: 39.8 µM [inhibitor, single point] |
| CC(CNc1nc2ccccc2c2nc(-c3ccccc3)nn12)c1ccccc1 (configuration not stated) | inactive |
| CC(=O)Nc1cccc(NC(=O)CSc2cn(CC(=O)N3CCCC3)c3ccccc23)c1 | inactive |
| Cc1noc2ncnc(N3CCCC(C(=O)Nc4cc(F)ccc4F)C3)c12 (configuration not stated) | inconclusive: 20 µM [inhibitor, single point] |

| SMILES | Potency |
| --- | --- |
| CCc1c(C)sc2c1CCN(C(=O)Nc1ccccc1Cl)C2c1ccc(OC)cc1 (configuration not stated) | inconclusive: 35.5 µM [inhibitor, partial curve, poor fit] |
| Cc1cc(-n2c(SCc3ccccc3F)nc3[nH]ncc3c2=O)ccc1Cl | inconclusive: 14.1 µM [inhibitor, partial curve] |
| CCCCCCCCCCCCCCCC[N+](C)(C)CC | inconclusive: 25.1 µM [inhibitor, single point] |
| Cc1cc(Cl)ccc1NC(=O)C1CCCN1S(=O)(=O)c1ccc2c(c1)CCCC(=O)N2 (configuration not stated) | inconclusive: 28.2 µM [inhibitor, partial curve, poor fit] |
| CS(=O)(=O)c1ncc(N(Cc2ccco2)Cc2cccs2)c(C(=O)Nc2ccccc2F)n1 | inconclusive: 20 µM [inhibitor, partial curve, poor fit] |
| Cc1ccc(C(=O)N2CC(=O)Nc3ccc(Br)cc3C2c2ccc(F)cc2)cc1C (configuration not stated) | inconclusive: 39.8 µM [inhibitor, single point] |
| CCN1CCN(C(=O)Cn2c(-c3cccs3)cc3cc(Cl)ccc32)CC1 | inconclusive: 31.6 µM [inhibitor, partial curve, poor fit] |
| CC(C)CCNC(=O)c1c[nH]c2ccc(S(=O)(=O)Nc3cccc(C(F)(F)F)c3)cc2c1=O | inconclusive: 28.2 µM [inhibitor, partial curve, poor fit] |
| O=C(Cn1c(-c2cccs2)cc2ccccc21)NCCCN1CCN(c2cccc(Cl)c2)CC1 | inconclusive: 31.6 µM [inhibitor, single point] |
| O=C1CCCc2cc(S(=O)(=O)N3CCCC(C(=O)NCc4ccccc4Cl)C3)ccc2N1 (configuration not stated) | inconclusive: 20 µM [inhibitor, partial curve, poor fit] |
| Cc1ccc(-n2c(=O)c3oc4ccccc4c3n(Cc3ccccc3)c2=O)cc1C | inconclusive: 3.16 µM [inhibitor, full curve] |
| COc1cc(C(=O)Nc2sc3c(c2C#N)CCCC3)c(Br)c(OC)c1OC | inactive |
| CS(=O)(=O)c1ncc(Cl)c(C(=O)N(Cc2ccc(Cl)cc2)Cc2ccco2)n1 | inconclusive: 31.6 µM [inhibitor, single point] |
| O=S(=O)(NCCc1ccccc1)c1ccc(N2CCCCS2(=O)=O)cc1 | inconclusive: 14.1 µM [inhibitor, partial curve] |
| COc1ccc(C(=O)O)cc1Nc1nc2ccc(C)cc2n2cnnc12 | inactive |
| NC(=O)CC[C@@H](N)C(=O)O | inactive |
| CCc1ccc(S(=O)(=O)c2cn(C)c3cc(N4CCCCC4C)c(F)cc3c2=O)cc1 (configuration not stated) | inconclusive: 31.6 µM [inhibitor, single point] |
| CCOC(=O)Cn1c(=O)oc2cc(S(=O)(=O)N3CCN(c4ccc(Cl)cc4)CC3)ccc21 | inconclusive: 28.2 µM [inhibitor, single point] |
| O=C(Nc1ccc(C(F)(F)F)cc1)C1CCC(CNS(=O)(=O)c2cccc3nsnc23)CC1 (configuration not stated) | inactive |
| O=C(CSc1nccn1Cc1ccco1)Nc1cccc(F)c1 | inactive |
| O=C(CN1C(=O)COc2ccc(S(=O)(=O)N3CCCCC3)cc21)NCc1ccc(F)cc1 | inactive |

| SMILES | Potency |
| --- | --- |
| CCOc1ccc(CNC(=O)C2CCCN(c3nc4c(C)cc(C)cc4s3)C2)cc1 (configuration not stated) | inactive |
| COc1ccccc1-c1nc(S(=O)(=O)c2ccc(Cl)cc2)c(N2CCCCCC2)o1 | inconclusive: 39.8 µM [inhibitor, partial curve, poor fit] |
| O=C(Nc1ccc(N2CCC(N3CCCCC3)CC2)c(C(=O)O)c1)c1ccc(Br)cc1 | inactive |
| Cc1cc(O)c(C(c2ccc(F)cc2)N2CCCCC2)c(=O)n1Cc1ccco1 (configuration not stated) | inactive |
| CCc1ccc(-n2nc(C)c3c(C(=O)Nc4cccc(C(F)(F)F)c4)cc(C)nc32)cc1 | inconclusive: 22.4 µM [inhibitor, partial curve, poor fit] |
| O=C(Nc1cccc(C(=O)N2CCCCC2)c1)c1nsc2ccccc12 | inactive |
| Cc1cc(Nc2cccc(C(F)(F)F)c2)nc2ccc(NC(=O)c3ccc(N(C)C)cc3)cc12 | inconclusive: 20 µM [inhibitor, single point] |
| Cc1cccc(C)c1Nc1c(-c2ccsc2)nc2ccccn12 | inconclusive: 31.6 µM [inhibitor, single point] |
| COc1ccc(CNC(=O)C(=O)NCC(c2cccs2)S(=O)(=O)c2ccc(F)cc2)cc1 (configuration not stated) | inconclusive: 39.8 µM [inhibitor, partial curve, poor fit] |
| Cc1ccc(NC(=O)c2c(Nc3ccccc3C)sc(C(=O)c3ccccc3)c2N)cc1 | inconclusive: 39.8 µM [inhibitor, partial curve, poor fit] |
| CCOC(=O)c1ccc(OCC2c3cc(OC)c(OC)cc3CCN2C(=O)Cc2ccc(F)cc2)cc1 (configuration not stated) | inconclusive: 20 µM [inhibitor, partial curve] |
| CC(=O)N1CCCc2cc(S(=O)(=O)N(C)CC(=O)Nc3ccc(F)cc3Cl)ccc21 | inconclusive: 31.6 µM [inhibitor, partial curve, poor fit] |
| COc1ccc(OC)c(C2CC(=O)c3c([nH]c(C(=O)OC4CCC(C)CC4)c3C)C2)c1 (configuration not stated) | inconclusive: 4.47 µM [inhibitor, partial curve] |
| CC(CC(=O)NCc1ccc(Cl)cc1)CC1=NS(=O)(=O)c2ccccc2N1 (configuration not stated) | inconclusive: 28.2 µM [inhibitor, partial curve, poor fit] |
| COc1ccc(N2CCN(CCCNC(=O)C3COc4ccc(OC)cc4C3)CC2)cc1 (configuration not stated) | inconclusive: 31.6 µM [inhibitor, partial curve, poor fit] |
| CCCCOCCOc1nc(-c2ccc(C(=O)O)c(F)c2)sc1C | inactive |
| COc1ccc(S(=O)(=O)c2cn(C)c3cc(N4CCCCC4)c(F)cc3c2=O)cc1 | inconclusive: 3.16 µM [inhibitor, partial curve, poor fit] |
| Cc1c(-c2nsc(NC(=O)c3ccc(Cl)cc3)n2)nnn1-c1ccc(C(C)C)cc1 | inconclusive: 39.8 µM [inhibitor, single point] |
| Cc1cc(C)cc(NC(=O)CSc2nccn2-c2ccccc2)c1 | inconclusive: 39.8 µM [inhibitor, single point] |
| Cc1cccc2nc(-c3cccnc3)c(Nc3ccc(C(C)C)cc3)n12 | inconclusive: 31.6 µM [inhibitor, partial curve, poor fit] |
